{"source": "PubChem BioAssay AID1240", "about": "(Sanford-Burnham Center for Chemical Genomics, 2008)", "note": "The whole screen tested about 50,000 compounds, of which about 800 (1.6%) showed an effect of 50% or more. This is one part of the list.", "data": [{"molecular_target": "Bcl-2-like protein 10 (Homo sapiens) (UniProt Q9HD36)", "sequence (Q9HD36 whole entry, looked up)": "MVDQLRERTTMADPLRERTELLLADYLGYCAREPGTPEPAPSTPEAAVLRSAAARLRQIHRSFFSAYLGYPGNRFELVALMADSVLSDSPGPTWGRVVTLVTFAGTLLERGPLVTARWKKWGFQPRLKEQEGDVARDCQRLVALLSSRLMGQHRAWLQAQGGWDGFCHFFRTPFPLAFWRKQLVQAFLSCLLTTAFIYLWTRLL", "test": "Phenotype converters, Bcl-B/TR3 peptide binding displacement, primary biochemical FP (AID 1240);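 further: 0% = Bcl-B with tracer peptide and DMSO and 100% = tracer peptide lacking Bcl-B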", "conditions": "GST-Bcl-B / FITC-TR3 peptide fluorescence polarization; stronger effect = higher value; compound at 3.75 mg/L", "units": {"displacement": "%"}, "values": [{"smiles": "COc1cc(OC)cc(C(=O)N2CCN(C(=O)C(c3ccccc3)c3ccccc3)CC2)c1", "displacement": -16.2}, {"smiles": "CS(=O)(=O)N(Cc1ccc(C(=O)N[C@@H]2CCCC[C@H]2O)cc1)c1ccccc1", "displacement": -5}, {"smiles": "Cc1ccccc1C(=O)NN1CCOCC1", "displacement": 4.4}, {"smiles": "CCOc1ccccc1N1CCN(C(=O)C(F)(F)F)CC1", "displacement": 6.1}, {"smiles": "Cc1cccc(NC(=O)C2CCCC2)n1", "displacement": -0.1}, {"smiles": "C[n+]1cn(Cc2ccccc2)c2c(=O)[nH]c(N)nc21", "displacement": 4.4}, {"smiles": "CCOc1ccc(NC(=O)c2cc(Cl)ccc2[N+](=O)[O-])cc1", "displacement": 7.8}, {"smiles": "COC(=O)c1cn(C(=O)c2ccc(-c3ccccc3)cc2)c2ccccc12", "displacement": -0.2}, {"smiles": "CCOc1ccccc1NC(=O)c1cc(C(=O)OC)cc([N+](=O)[O-])c1", "displacement": -7.1}, {"smiles": "COc1ccc(Cl)cc1NS(=O)(=O)c1cccc([N+](=O)[O-])c1", "displacement": 72.8}, {"smiles": "COc1ccc(C2/C(=C(\\O)c3ccccc3)C(=O)C(=O)N2CCCC(=O)O)cc1", "note": "(configuration not stated)", "displacement": -9.5}, {"smiles": "COc1ccc(CNCc2cc(OC)c(O)c(OC)c2)cc1", "displacement": -13.3}, {"smiles": "Cc1ccc(NC(=O)c2ccc(-c3ccc(Cl)cc3)o2)c([N+](=O)[O-])c1", "displacement": 9}, {"smiles": "O=c1c(-c2ccccc2)coc2c(CN3CCCCCC3)c(O)ccc12", "displacement": -11.5}, {"smiles": "O=C(Nc1ccc([N+](=O)[O-])cn1)C(c1ccccc1)c1ccccc1", "displacement": 14.5}, {"smiles": "O=C(O)CN1C(=O)S/C(=C\\c2ccccc2O)C1=O", "displacement": -6}, {"smiles": "COc1ccc(N2C(=O)C3ON(c4ccccc4)C(c4ccncc4)C3C2=O)cc1", "note": "(configuration not stated)", "displacement": -5.7}, {"smiles": "CCOc1cc(/C=N/N=C(N)N)ccc1OCc1ccccc1", "displacement": 8.4}, {"smiles": "O=C1OC(c2cccc(Cl)c2)=N/C1=C\\c1ccc(OC(=O)c2cccc([N+](=O)[O-])c2)cc1", "displacement": 71.9}, {"smiles": "CC(=O)Nc1ccc(-c2nc(-c3ccccc3)c(-c3ccccc3)[nH]2)cc1", "displacement": -1.3}, {"smiles": "Cc1nc(SCN2C(=O)c3ccccc3C2=O)n[nH]1", "displacement": 16.5}, {"smiles": "CC1CC(Nc2ccccc2)c2ccccc2N1C(=O)c1cccc(Br)c1", "note": "(configuration not stated)", "displacement": 5.6}, {"smiles": "Cc1cc(/C=N/NC(=O)CC#N)c(C)n1-c1ccc(F)cc1", "displacement": -2.9}, {"smiles": "CC1(C)Cc2c(sc3nc(CC(N)=O)n(Cc4ccccc4)c(=O)c23)CO1", "displacement": -6.5}, {"smiles": "COc1cc(/C=C2\\C(=O)NN(c3ccccc3)C2=O)cc(Br)c1OCC(=O)O", "displacement": 10.3}, {"smiles": "CC(C)NC(=O)COc1cccc(Cl)c1", "displacement": -4.6}, {"smiles": "O=C(O)c1ccc(-c2nc(-c3ccccc3)c(-c3cccs3)[nH]2)cc1", "displacement": -18.6}, {"smiles": "COc1ccc(N=C2SC(C(=O)N3CCN(c4ccc(F)cc4)CC3)CC(=O)N2C)cc1", "note": "(configuration not stated)", "displacement": -5.5}, {"smiles": "O=C(O)/C=C/C(=O)NNC(=O)c1cc(O)cc(O)c1", "displacement": 3.6}, {"smiles": "COc1cc(/C=C(\\C#N)C(=O)Nc2ccc(F)cc2)ccc1O", "displacement": -17.3}, {"smiles": "OC(COc1ccccc1Cl)CN1CCN(CC(O)COc2ccccc2Cl)CC1", "note": "(configuration not stated)", "displacement": 8.1}, {"smiles": "Nc1[nH]n(-c2ccccc2)c(=O)c1N=Nc1ccc2[nH]c(=O)[nH]c2c1", "displacement": 5.1}, {"smiles": "Cc1cc(C)nc(SCC(=O)Oc2ccc3oc(=O)cc(C)c3c2)n1", "displacement": -5.2}, {"smiles": "CN(C)CC#CC(O)(c1ccccc1)c1ccccc1", "displacement": 4.8}, {"smiles": "CC(C)CNC(=O)c1cccc(NC(=O)c2ccc(Cl)c([N+](=O)[O-])c2)c1", "displacement": 13.8}, {"smiles": "O=C(CCc1ccccc1)Nc1cccc(I)c1", "displacement": -15.6}, {"smiles": "O=C1c2ccc(-c3nc4ccccc4c(=O)o3)cc2C(=O)N1c1ccc(Cl)cc1", "displacement": 2}, {"smiles": "COc1ccc2occ(C(=O)c3ccc([N+](=O)[O-])cc3)c2c1", "displacement": 9.6}, {"smiles": "O=C(Cn1c2ccccc2c(=O)c2ccccc21)N/N=C/c1cc([N+](=O)[O-])ccc1N1CCCC1", "displacement": 73.6}, {"smiles": "CCCOc1ccc(C(=O)Nc2ccc(I)cc2Cl)cc1", "displacement": 18.1}, {"smiles": "COc1ccc(C(C)NC(=O)c2ccc(OC)c(OC)c2)cc1", "note": "(configuration not stated)", "displacement": 10.1}, {"smiles": "COc1ccc(N(CC(=O)N/N=C(\\C)c2ccccc2)S(=O)(=O)c2ccccc2)cc1Cl", "displacement": -0.9}, {"smiles": "Cc1ccc(-c2nc3ccccc3s2)cc1NC(=S)NC(=O)c1ccco1", "displacement": 11}, {"smiles": "COC(=O)CN(Cc1ccccc1)S(=O)(=O)c1ccc(OC)c(OC)c1", "displacement": -8.1}, {"smiles": "CCOC(=O)c1c(C)oc2ccc(OC(=O)c3ccc(OC)c(OC)c3)cc12", "displacement": 10.3}, {"smiles": "O=C1C=C(NNC(=O)Cc2ccccc2)CCC1", "displacement": 1.2}, {"smiles": "COc1ccc(C(=O)N2CCN(C3C4CC5CC(C4)CC3C5)CC2)cc1OC", "note": "(configuration not stated)", "displacement": -6.5}, {"smiles": "CCCCOc1ccccc1C1Nc2ccccc2NC2=C1C(=O)CC(c1ccccc1)C2", "note": "(configuration not stated)", "displacement": 1.1}, {"smiles": "O=C1C(Cl)=C(Nc2ccc(F)cc2)C(=O)N1c1ccc(Br)cc1", "displacement": -2.5}, {"smiles": "Cc1ccc(C(=O)c2sc3nc(C)cc(C)c3c2N)c(C)c1", "displacement": 2.3}, {"smiles": "NC(=O)c1cc(NC(=O)COc2ccc(F)cc2)ccc1Cl", "displacement": 1.1}, {"smiles": "CCN(CC)C(=O)CN(c1ccc(Cl)cc1)S(C)(=O)=O", "displacement": 1.2}, {"smiles": "O=C1C2C3C=CC(C4CC34)C2C(=O)N1N=Cc1ccccc1Cl", "note": "(configuration not stated)", "displacement": 9.2}, {"smiles": "CN(C)S(=O)(=O)c1ccc(C(=O)Nc2nc3ccc(Br)cc3s2)cc1", "displacement": -9.6}, {"smiles": "Cc1ccc(O)c(NC(=O)c2ccc(Cl)cc2)c1", "displacement": 7.7}, {"smiles": "O=C1CSC(=O)N1c1ccc(O)cc1", "displacement": 12.8}, {"smiles": "Cc1ccc(C(=O)Nc2ccc(C(C)C)cc2)cc1C", "displacement": 12.7}, {"smiles": "COc1ccc(CNC(=O)/C=C/c2cccc([N+](=O)[O-])c2)cc1", "displacement": 3.7}, {"smiles": "O=C(Cc1cccc2c(S(=O)O)cccc12)NC(c1ccccc1)c1ccccc1", "displacement": 10}, {"smiles": "CC1CCc2c(sc3nc(-c4ccccc4)oc(=O)c23)C1", "note": "(configuration not stated)", "displacement": 5.1}, {"smiles": "Cc1ccc(N=Cc2c(O)n(-c3ccccc3Cl)c(=O)[nH]c2=O)cc1", "displacement": 5}, {"smiles": "CSc1ccc(S(=O)(=O)N(CC(=O)NC2CCCCC2)c2ccc(C)cc2)cc1", "displacement": 7.9}, {"smiles": "Cc1ccc(NC(=S)NC(=O)c2ccco2)cc1", "displacement": -0.3}, {"smiles": "Cc1onc(-c2ccccc2Cl)c1C(=O)N1CCCCCC1", "displacement": 3}, {"smiles": "O=C(c1ccc([N+](=O)[O-])cc1)N1CCN(c2cccc(Cl)c2)CC1", "displacement": -1.3}, {"smiles": "COc1ccc(C2C(=O)c3ccccc3C2=Nc2ccc(Br)cc2)cc1", "note": "(configuration not stated)", "displacement": 14.2}, {"smiles": "O=C(O)CSc1ncnc2c1oc1ccccc12", "displacement": 0.4}, {"smiles": "CN(C)CCNC(=O)C12CC3CC(c4ccccc4)(C1)CC(c1ccccc1)(C3)C2", "displacement": 15.6}, {"smiles": "COc1ccccc1N(C(=O)Nc1ccc(Cl)cc1)C(C)C1CC1", "note": "(configuration not stated)", "displacement": 8.3}, {"smiles": "CC(c1ccccc1)N1C(=O)C(=Cc2c(NCC3CCCO3)nc3ccccn3c2=O)SC1=S", "note": "(configuration not stated)", "displacement": -14.7}, {"smiles": "Oc1ccc(NC(=S)N=Nc2c(O)[nH]c3ccccc23)cc1", "displacement": 8.7}, {"smiles": "COc1ccc(C2C(C(=O)OC(C)C)=C(C)N=c3s/c(=C\\c4ccc(C)o4)c(=O)n32)cc1", "note": "(configuration not stated)", "displacement": 12.9}, {"smiles": "Cc1ccsc1C=NN1CCN(Cc2ccccc2Cl)CC1", "displacement": -8}, {"smiles": "CCOc1cccc(C(=O)Nc2ccc(-c3nc4cc(Cl)ccc4o3)cc2)c1", "displacement": 81.3}, {"smiles": "O=C(COc1ccc(Cl)cc1)Nc1ccccc1", "displacement": 13.7}, {"smiles": "Cc1cccc(N(CC(=O)NCCSc2ccccn2)S(=O)(=O)c2ccccc2)c1", "displacement": 3.8}, {"smiles": "COc1ccc2c(c1OC)C(=O)N(c1ccccc1O)C2=O", "displacement": 1.2}, {"smiles": "COc1ccc(/C=C(\\C#N)c2ccc([N+](=O)[O-])cc2)c(OC)c1", "displacement": 110}, {"smiles": "CCOC(=O)c1c(-c2ccccc2)nn(-c2ccccc2)c1C", "displacement": 16.9}, {"smiles": "O=C(Nc1ccc2ccccc2c1)C1CC(=O)N(c2cccc([N+](=O)[O-])c2)C1", "note": "(configuration not stated)", "displacement": 9.5}, {"smiles": "c1ccc2c(N3CCOCC3)nc(-c3ccncc3)nc2c1", "displacement": 7.4}, {"smiles": "COc1ccc(CNS(=O)(=O)c2ccc([N+](=O)[O-])cc2)cc1", "displacement": -6.4}, {"smiles": "O=C(Nc1cccc(NC(=O)c2ccc(Cl)cc2Cl)c1)c1ccc(-c2ccc([N+](=O)[O-])cc2)o1", "displacement": 106}, {"smiles": "Cc1ccccc1OCC(=O)NNC(=O)c1ccccc1C", "displacement": -10.7}, {"smiles": "O=C(Nc1ccc(OC(F)(F)F)cc1)c1ccc2c(c1)OCCO2", "displacement": 0.8}, {"smiles": "CCN(CC)CCc1c(C)[nH]c(C(=O)OCc2ccccc2)c1C", "displacement": -0.3}, {"smiles": "Cc1ccc([N+](=O)[O-])cc1NC(=O)c1ccccc1C(=O)O", "displacement": 2.1}, {"smiles": "O=C(O)c1ccc(C(=O)Nc2ccccc2Oc2ccccc2)c(C(=O)O)c1", "displacement": 9.6}, {"smiles": "O=C(/C=C/c1ccc(F)cc1)NC(=S)Nc1cccc([N+](=O)[O-])c1", "displacement": -2.5}, {"smiles": "Cc1ccc(C(=O)Nc2ccc(C(=O)O)cc2)cc1S(=O)(=O)N1CCCCC1", "displacement": 0.1}, {"smiles": "COc1ccc(/C=C/c2ccc3ccccc3n2)cc1", "displacement": -10.7}, {"smiles": "O=c1oc2ccccc2c(O)c1/C=C1\\C=Nc2ccccc21", "displacement": 2.2}, {"smiles": "CCOC(=O)C1C(=O)C=C(c2ccc([N+](=O)[O-])cc2)CC1c1ccccc1", "note": "(configuration not stated)", "displacement": 4.1}, {"smiles": "CC(=O)c1ccc(N2C(=O)CC(S/C(N)=N/N=C(\\C)c3cccs3)C2=O)cc1", "note": "(configuration not stated)", "displacement": 11.6}, {"smiles": "COCCNC(=O)COc1cccc2ccccc12", "displacement": 0.4}, {"smiles": "Cc1ccc(N2NC(=O)/C(=C/c3cccs3)C2=O)cc1Cl", "displacement": 13.1}, {"smiles": "CCOC(=O)COc1cc(Br)c(/C=c2\\sc3nc4ccccc4n3c2=O)cc1OC", "displacement": 11.1}, {"smiles": "COc1ccc(N=Cc2c(O)n(-c3ccccc3OC)c(=O)[nH]c2=O)cc1", "displacement": 9.4}, {"smiles": "COc1ccc(OC)c(C2NC(=S)NC(C)=C2C(=O)Nc2ccc(Cl)cc2)c1", "note": "(configuration not stated)", "displacement": -9.2}, {"smiles": "COc1ccc(NCN2C(=O)S/C(=C/c3ccc(SC)cc3)C2=O)cc1", "displacement": -3.5}, {"smiles": "CCN(CC)C(=O)c1c(-c2ccccc2)oc2ccc(O)cc12", "displacement": 4.7}, {"smiles": "O=[N+]([O-])c1ccc2c(c1)ONC(c1ccc(Cl)cc1)=N2", "displacement": 11.1}, {"smiles": "Cc1ccc(C(=O)O/N=C(\\N)c2cccc([N+](=O)[O-])c2)cc1", "displacement": -17.2}, {"smiles": "Cc1ccc(/C=C2\\C=C(c3ccc(Cl)cc3)OC2=O)cc1[N+](=O)[O-]", "displacement": 13.1}, {"smiles": "COc1ccc(NC(=O)NCCOc2cccc3ccccc23)cc1OC", "displacement": -11.5}, {"smiles": "Cc1cc([N+](=O)[O-])ccc1NS(=O)(=O)c1cc(Cl)ccc1Cl", "displacement": -3}, {"smiles": "NC1=NC(=O)/C(=C/c2cccc(OS(=O)(=O)c3cccc([N+](=O)[O-])c3)c2)S1", "displacement": -8}]}]}
